According to PubChem BioAssay AID360 (National Center for Advancing Translational Sciences (NCATS), 2006):
About 550 (1.1%) of roughly 48,000 compounds were called active. Not shown: some 4% with an inconclusive outcome. No stated cut-off is given here; in the data, active means potency below about 15 µM; inconclusive means mostly about 16 µM to 33 µM; inactive means weaker than that. This is one part of the list.

Biological target: Lysosomal acid glucosylceramidase (Homo sapiens) (UniProt P04062)
Test: Glucocerebrosidase;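 further: the screen sought inhibitors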
Details: purified enzyme, resorufin glucoside fluorescence (screen aimed at inhibitors), 20 min; series mostly up to 77 µM
How it was run: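 Compounds titrated against 0.2 nM normal enzyme, 30 uM resorufin beta-D-glucopyranoside substrate, citrate/phosphate buffer with taurocholate and tween-20, pH 5.9. Reaction ran 20 min at room temperature; fluorescence (Ex 548/Em 600) gave AC50.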
Potency means the concentration at half of the fitted maximal effect.

UniProt P04062, sequence (P04062 whole entry, looked up): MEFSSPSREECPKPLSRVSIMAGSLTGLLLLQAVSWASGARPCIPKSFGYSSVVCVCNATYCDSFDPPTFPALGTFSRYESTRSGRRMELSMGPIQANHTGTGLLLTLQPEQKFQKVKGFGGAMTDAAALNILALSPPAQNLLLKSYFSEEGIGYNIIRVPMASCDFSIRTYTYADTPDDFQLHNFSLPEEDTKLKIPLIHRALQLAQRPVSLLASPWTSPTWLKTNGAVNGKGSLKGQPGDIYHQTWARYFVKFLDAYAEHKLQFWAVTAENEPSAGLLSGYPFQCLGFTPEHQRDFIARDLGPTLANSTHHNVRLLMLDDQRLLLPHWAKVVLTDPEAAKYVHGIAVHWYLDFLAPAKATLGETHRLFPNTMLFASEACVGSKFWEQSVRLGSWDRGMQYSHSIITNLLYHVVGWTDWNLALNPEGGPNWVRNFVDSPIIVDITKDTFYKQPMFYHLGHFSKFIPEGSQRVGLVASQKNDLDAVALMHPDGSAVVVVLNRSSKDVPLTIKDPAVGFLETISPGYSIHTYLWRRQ

Potency, inactive:
CCN1CCCC1CNC(=O)Cn1cnc2ccc(S(=O)(=O)N3CCC(C)CC3)cc2c1=O (configuration not stated) > 76.9 µM
CCOC(=O)Nc1cccc(NC(=O)c2cc(OC)cc(OC)c2)c1 > 76.9 µM
Cc1cc2cc(CNC(=O)c3cc4ccccc4o3)ccc2n1C > 76.9 µM
O=C(CN1C(=O)CSc2ccccc21)N1CCc2ccccc21 > 76.9 µM
COc1ccc(-c2ccc(SCC(=O)N3CCOCC3)nn2)cc1 > 76.9 µM
Cc1nc(NC2=NCN(CCCN3CCOCC3)CN2)nc2c(C)cccc12 > 76.9 µM
N#CC1=C(N)C(C#N)(C#N)[C@H](c2ccsc2)[C@H]2COCC=C12 > 76.9 µM
Cc1ccc2cc(C#N)c(SCC(=O)NCc3ccco3)nc2c1 > 76.9 µM
Cc1ccc2c(CC(=O)N3CCc4ccccc43)coc2c1 > 76.9 µM
CCC(C)NC(=O)C1CCCN(S(=O)(=O)c2ccc(-n3cnnn3)cc2)C1 (configuration not stated) > 76.9 µM
O=C1CC2CS(=O)(=O)CC2N1c1ccc(Cl)cc1Cl (configuration not stated) > 76.9 µM
CCN(CC)C(=O)C1CCN(Cc2cccc(OCc3ccccc3)c2)CC1 > 76.9 µM
COc1ccc(CN(Cc2ccccn2)C(=O)CN2C(=O)C(C)Oc3ccccc32)cc1 (configuration not stated) > 76.9 µM
Cn1c(=O)c2ncn(CC(=O)NCCC3=CCCCC3)c2n(C)c1=O > 76.9 µM
CCc1ccc(N(C(C)=O)C2C=CS(=O)(=O)C2)cc1 (configuration not stated) > 76.9 µM
O=c1c2ccccc2nnn1CSc1nnc(-c2ccco2)o1 > 76.9 µM
COc1ccc(C(C(=O)OCCN(C)C)c2ccccc2)cc1 (configuration not stated) > 76.9 µM
O=C(NCCCN1CCOCC1)c1c(F)cccc1F > 76.9 µM
Cc1ccc(C)c(C(=O)C(C)OC(=O)c2cccn2C)c1 (configuration not stated) > 76.9 µM
COc1ccc(OC)c(NC(=O)CN2CCC(C(=O)c3ccc(C)cc3)CC2)c1 > 76.9 µM
O=C(O)c1ccc(N2CCCC2=O)cc1 > 76.9 µM
CCc1c(C)nc2ncnn2c1N1CCCC(C(=O)NCc2ccco2)C1 (configuration not stated) > 76.9 µM
CCn1c(SCC(=O)NCC2CCCO2)nc2cc(S(=O)(=O)N3CCCCC3)ccc21 (configuration not stated) > 76.9 µM
O=C(Nc1cnc2ccccn2c1=O)c1ccc(F)cc1 > 76.9 µM
O=S(=O)(c1ccc2c(c1)OCCO2)N1CCC(n2nnc3cc(C(F)(F)F)ccc32)CC1 > 76.9 µM
COc1ccc(-c2cc(C(=O)Nc3cc(C)n(Cc4ccc(Cl)cc4)n3)no2)cc1OC > 76.9 µM
O=C(c1ccco1)N1CCN(S(=O)(=O)c2ccc(S(=O)(=O)NC3CCCC3)cc2)CC1 > 76.9 µM
COC(=O)c1ccnc(/C=N/O)c1 > 76.9 µM
Cc1ccc2[nH]c(=O)c(CN(Cc3nnnn3Cc3ccccc3)C3CCCC3)cc2c1 > 76.9 µM
CN(Cc1ccccc1)C(=O)CNC(=O)Cn1cnc2ccccc2c1=O > 76.9 µM
O=C(Nc1ccc(NC(=O)C2CC2)nc1)c1ccccn1 > 76.9 µM
CC1Cc2ccccc2N1C(=O)CN1C(=O)NC(C)(c2ccc3c(c2)OCCO3)C1=O (configuration not stated) > 76.9 µM
CC1CCc2c(sc(NC(=O)c3ccc(Cn4cc(Br)cn4)o3)c2C(N)=O)C1 (configuration not stated) > 76.9 µM
Cc1cc(S(=O)(=O)n2cnc3ccccc32)c(C)cc1Cl > 76.9 µM
COc1ccc(CNc2nc3c(c(=O)n(Cc4ccc(F)cc4)c(=O)n3C)n2C)cc1 > 76.9 µM
CCS(=O)(=O)N1CCN(Cc2nc3ccccc3c(=O)[nH]2)CC1 > 76.9 µM
COc1ccccc1C(=O)Nc1ccc2c(c1)nc(CCNC(C)=O)n2C > 76.9 µM
c1ccc(-n2nnnc2Sc2n[nH]c(-c3ccncc3)n2)cc1 > 76.9 µM
COc1ccc(CC(=O)Nc2ccc3c(c2)OCO3)cc1S(=O)(=O)N1CCOCC1 > 76.9 µM
CCn1cc(C(=O)NCc2ccc3c(c2)OCO3)c(=O)c2cc(S(=O)(=O)N3CCOCC3)ccc21 > 76.9 µM
Cc1ccc(O)c(NC(=O)COc2cc(C)ccc2C)c1 > 76.9 µM
Cc1ccc(-c2nc3ccccc3n3nnnc23)cc1 > 76.9 µM
CN1C(=O)N(C)C2C1NC(=O)N2C (configuration not stated) > 76.9 µM
N#CCCN(C(=O)COC(=O)c1ccc2c(c1)NC(=O)CS2)c1ccc2c(c1)OCCO2 > 76.9 µM
CN1CCN(S(=O)(=O)c2ccc(SCCOc3ccccc3)nc2)CC1
CN(C)c1ccc(C(C(=O)NC(C)(C)C)N(C(=O)c2csnn2)C2CC2)cc1 (configuration not stated) > 76.9 µM
CCCC(C(=O)NCC1CCCO1)N(Cc1ccco1)C(=O)CNS(=O)(=O)c1ccccc1 (configuration not stated) > 76.9 µM
O=C(CN1CCC(O)(c2ccc3c(c2)OCO3)CC1)N1CCOCC1 > 76.9 µM
Cn1cc(C(=O)NC2CCCCC2)c(=O)c2cc(S(=O)(=O)N3CCCC3)ccc21 > 76.9 µM
NC(=O)C1(N2CCCCC2)CCN(C(=O)c2ccc(-n3cnnn3)cc2)CC1 > 76.9 µM
C=CCC(NCc1ccccc1)c1ccco1 (configuration not stated) > 76.9 µM
Cc1ccc(C)c(NC(=O)CN(C)S(=O)(=O)c2ccccc2)c1 > 76.9 µM
CCCC(=O)NCCCc1nc2ccccc2n1CCC > 76.9 µM
O/N=C(\Cc1cscn1)c1ccc(O)cc1O > 76.9 µM
CCS(=O)(=O)N1CCN(S(=O)(=O)c2ccc(F)cc2)CC1 > 76.9 µM
Clc1ccccc1Nc1c2c(nc3ncnn13)CCC2 > 76.9 µM
CCNC(=O)NC(=O)COC(=O)CCCSc1nc2ccccc2[nH]1 > 76.9 µM
